# Results taken from the supplement of paper PMC8728848.
# This is one part of the list.
# B1: AAL (Agrocybe aegerita), Q6WY08 (protein)
# chain: MQGVNIYNISAGTSVDLAAPVTTGDIVTFFSSALNLNAGAGNPNNTTLNLFAENGAYLLHIAHRLQENVIIFNSRQPDGPWLVEQRVSDVANQFAGIDGKAMVTVFDHGDKYQVVINEKTVIQYTKQISGLTLSLSYNATEETSIFSTVVEAVTYTGLALEHHHHHH
# Columns and labels:
# Experiment in all cases: glycan array binding signal (z-score within array); higher = stronger binding
# Details in all cases: glycan notation: IUPAC condensed, linker removed; mutation: F63H
# [1] = molecular target: GlcNAc(b1-3)Gal(b1-4)GlcNAc(b1-3)Gal(b1-4)GlcNAc(b1-3)Gal(b1-4)GlcNAc(b1-3)Gal(b1-4)GlcNAc(b1-2)[GlcNAc(b1-3)Gal(b1-4)GlcNAc(b1-3)Gal(b1-4)GlcNAc(b1-3)Gal(b1-4)GlcNAc(b1-3)Gal(b1-4)GlcNAc(b1-6)]Man(a1-6)[GlcNAc(b1-3)Gal(b1-4)GlcNAc(b1-3)Gal(b1-4)GlcNAc(b1-3)Gal(b1-4)GlcNAc(b1-3)Gal(b1-4)GlcNAc(b1-2)Man(a1-3)]Man(b1-4)GlcNAc(b1-4)[Fuc(a1-6)]GlcNAc
# Method in brief: (§1)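 Glycan array data were curated from 3228 arrays in the Consortium for Functional Glycomics database and kept only where the protein sequence was available. Glycan names were converted to IUPAC-condensed notation, and columns mapping to the same glycan were averaged. The binding signal is a within-array Z-score, averaged across arrays of the same protein sequence at different concentrations or buffers and across linkers. Negative Z-scores can be read as non-binding.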
# [2] = molecular target: GlcNAc(b1-3)Gal(b1-4)GlcNAc(b1-3)Gal(b1-4)GlcNAc(b1-3)GalNAc
# Method in brief: as §1
# [3] = molecular target: GlcNAc(b1-3)Gal(b1-4)GlcNAc(b1-3)GalNAc
# Method in brief: as §1
# [4] = molecular target: GlcNAc(b1-3)Gal(b1-4)GlcNAc(b1-3)[GlcNAc(b1-3)Gal(b1-4)GlcNAc(b1-3)]GalNAc
# Method in brief: as §1
# [5] = molecular target: GlcNAc(b1-3)Gal(b1-4)GlcNAc(b1-6)[Gal(b1-3)]GalNAc
# Method in brief: as §1
# [6] = molecular target: GlcNAc(b1-3)Gal(b1-4)GlcNAc(b1-6)[GlcNAc(b1-3)Gal(b1-3)]GalNAc
# Method in brief: as §1
# [7] = molecular target: GlcNAc(b1-3)Gal(b1-4)GlcNAc(b1-6)[GlcNAc(b1-3)]Gal(b1-4)GlcNAc
# Method in brief: as §1
# GlcNAc(b1-3)GalNAc = molecular target: GlcNAc(b1-3)GalNAc
# Method in brief: as §1
# GlcNAc(b1-3)Man = molecular target: GlcNAc(b1-3)Man
# Method in brief: as §1
# [8] = molecular target: GlcNAc(b1-3)[GlcNAc(b1-4)][GlcNAc(b1-6)]GlcNAc
# Method in brief: as §1
# [9] = molecular target: GlcNAc(b1-3)[GlcNAc(b1-6)]Gal(b1-4)GlcNAc
# Method in brief: as §1
# [10] = molecular target: GlcNAc(b1-3)[GlcNAc(b1-6)]GalNAc
# Method in brief: as §1
# [11] = molecular target: GlcNAc(b1-4)Gal(b1-4)GlcNAc
# Method in brief: as §1
# GlcNAc(b1-4)GlcNAc = molecular target: GlcNAc(b1-4)GlcNAc
# Method in brief: as §1
# [12] = molecular target: GlcNAc(b1-4)GlcNAc(b1-4)GlcNAc
# Method in brief: as §1
# [13] = molecular target: GlcNAc(b1-4)GlcNAc(b1-4)GlcNAc(b1-4)GlcNAc(b1-4)GlcNAc
# Method in brief: as §1
# [14] = molecular target: GlcNAc(b1-4)GlcNAc(b1-4)GlcNAc(b1-4)GlcNAc(b1-4)GlcNAc(b1-4)GlcNAc
# Method in brief: as §1
# [15] = molecular target: GlcNAc(b1-4)[GlcNAc(b1-6)]GalNAc
# Method in brief: as §1
# [16] = molecular target: GlcNAc(b1-6)Gal(b1-4)GlcNAc
# Method in brief: as §1
# GlcNAc(b1-6)GalNAc = molecular target: GlcNAc(b1-6)GalNAc
# Method in brief: as §1
# [17] = molecular target: GlcNAc6S(b1-3)Gal(b1-4)GlcNAc
# Method in brief: as §1
# Kdn(a2-3)Gal(b1-3)GalNAc = molecular target: Kdn(a2-3)Gal(b1-3)GalNAc
# Method in brief: as §1
# Kdn(a2-3)Gal(b1-3)GlcNAc = molecular target: Kdn(a2-3)Gal(b1-3)GlcNAc
# Method in brief: as §1
# Kdn(a2-3)Gal(b1-4)Glc = molecular target: Kdn(a2-3)Gal(b1-4)Glc
# Method in brief: as §1
# Kdn(a2-3)Gal(b1-4)GlcNAc = molecular target: Kdn(a2-3)Gal(b1-4)GlcNAc
# Method in brief: as §1
# [18] = molecular target: Kdn(a2-3)Gal(b1-4)[Fuc(a1-3)]GlcNAc
# Method in brief: as §1
# Kdn(a2-6)Gal(b1-4)GlcNAc = molecular target: Kdn(a2-6)Gal(b1-4)GlcNAc
# Method in brief: as §1
# [19] = molecular target: Man(a1-2)Man(a1-2)Man(a1-3)Man
# Method in brief: as §1
# [20] = molecular target: Man(a1-2)Man(a1-2)Man(a1-6)[Man(a1-3)]Man
# Method in brief: as §1
# Man(a1-2)Man(a1-3)Man = molecular target: Man(a1-2)Man(a1-3)Man
# Method in brief: as §1
# [21] = molecular target: Man(a1-2)Man(a1-3)[Man(a1-2)Man(a1-6)]Man
# Method in brief: as §1
# [22] = molecular target: Man(a1-2)Man(a1-3)[Man(a1-2)Man(a1-6)]Man(a1-6)[Man(a1-2)Man(a1-2)Man(a1-3)]Man
# Method in brief: as §1
# [23] = molecular target: Man(a1-2)Man(a1-3)[Man(a1-2)Man(a1-6)]Man(a1-6)[Man(a1-2)Man(a1-2)Man(a1-3)]Man(b1-4)GlcNAc(b1-4)GlcNAc
# Method in brief: as §1
# [24] = molecular target: Man(a1-2)Man(a1-3)[Man(a1-6)]Man(a1-6)[Man(a1-2)Man(a1-3)]Man(b1-4)GlcNAc(b1-4)GlcNAc
# Method in brief: as §1
# [25] = molecular target: Man(a1-2)Man(a1-6)[Man(a1-3)]Man(a1-6)[Man(a1-2)Man(a1-2)Man(a1-3)]Man
# Method in brief: as §1
# [26] = molecular target: Man(a1-2)Man(a1-6)[Man(a1-3)]Man(a1-6)[Man(a1-2)Man(a1-2)Man(a1-3)]Man(b1-4)GlcNAc(b1-4)GlcNAc
# Method in brief: as §1
# Man(a1-3)[Man(a1-6)]Man = molecular target: Man(a1-3)[Man(a1-6)]Man
# Method in brief: as §1
# [27] = molecular target: Man(a1-3)[Man(a1-6)]Man(a1-6)[Man(a1-2)Man(a1-3)]Man(b1-4)GlcNAc(b1-4)GlcNAc
# Method in brief: as §1
# [28] = molecular target: Man(a1-3)[Man(a1-6)]Man(a1-6)[Man(a1-3)]Man
# Method in brief: as §1
# [29] = molecular target: Man(a1-3)[Man(a1-6)]Man(a1-6)[Man(a1-3)]Man(b1-4)GlcNAc(b1-4)GlcNAc
# Method in brief: as §1
# [30] = molecular target: Man(a1-3)[Man(a1-6)]Man(b1-4)GlcNAc(b1-4)GlcNAc
# Method in brief: as §1
# [31] = molecular target: Man(a1-3)[Man(a1-6)]Man(b1-4)GlcNAc(b1-4)[Fuc(a1-6)]GlcNAc
# Method in brief: as §1
# Man(a1-6)Man = molecular target: Man(a1-6)Man
# Method in brief: as §1
# Man(b1-4)GlcNAc = molecular target: Man(b1-4)GlcNAc
# Method in brief: as §1
# MurNAc(b1-4)GlcNAc = molecular target: MurNAc(b1-4)GlcNAc
# Method in brief: as §1
binder,measurement,setting,value
B1,glycan array binding signal (z-score),[1],0.818
same,glycan array binding signal (z-score),[2],-0.233
same,glycan array binding signal (z-score),[3],-0.029
same,glycan array binding signal (z-score),[4],0.58
same,glycan array binding signal (z-score),[5],-0.371
same,glycan array binding signal (z-score),[6],-0.169
same,glycan array binding signal (z-score),[7],-0.04
same,glycan array binding signal (z-score),GlcNAc(b1-3)GalNAc,0.053
same,glycan array binding signal (z-score),GlcNAc(b1-3)Man,-0.511
same,glycan array binding signal (z-score),[8],-0.568
same,glycan array binding signal (z-score),[9],-0.322
same,glycan array binding signal (z-score),[10],-0.374
same,glycan array binding signal (z-score),[11],-0.34
same,glycan array binding signal (z-score),GlcNAc(b1-4)GlcNAc,0.059
same,glycan array binding signal (z-score),[12],-0.3
same,glycan array binding signal (z-score),[13],0.019
same,glycan array binding signal (z-score),[14],-0.297
same,glycan array binding signal (z-score),[15],-0.448
same,glycan array binding signal (z-score),[16],-0.101
same,glycan array binding signal (z-score),GlcNAc(b1-6)GalNAc,-0.101
same,glycan array binding signal (z-score),[17],0.168
same,glycan array binding signal (z-score),Kdn(a2-3)Gal(b1-3)GalNAc,0.108
same,glycan array binding signal (z-score),Kdn(a2-3)Gal(b1-3)GlcNAc,-0.066
same,glycan array binding signal (z-score),Kdn(a2-3)Gal(b1-4)Glc,0.283
same,glycan array binding signal (z-score),Kdn(a2-3)Gal(b1-4)GlcNAc,-0.48
same,glycan array binding signal (z-score),[18],-0.199
same,glycan array binding signal (z-score),Kdn(a2-6)Gal(b1-4)GlcNAc,-0.128
same,glycan array binding signal (z-score),[19],-0.069
same,glycan array binding signal (z-score),[20],-0.576
same,glycan array binding signal (z-score),Man(a1-2)Man(a1-3)Man,-0.172
same,glycan array binding signal (z-score),[21],0.372
same,glycan array binding signal (z-score),[22],-0.139
same,glycan array binding signal (z-score),[23],-0.48
same,glycan array binding signal (z-score),[24],-0.46
same,glycan array binding signal (z-score),[25],-0.364
same,glycan array binding signal (z-score),[26],-0.33
same,glycan array binding signal (z-score),Man(a1-3)[Man(a1-6)]Man,-0.444
same,glycan array binding signal (z-score),[27],-0.064
same,glycan array binding signal (z-score),[28],0.109
same,glycan array binding signal (z-score),[29],-0.179
same,glycan array binding signal (z-score),[30],-0.368
same,glycan array binding signal (z-score),[31],0.77
same,glycan array binding signal (z-score),Man(a1-6)Man,0.34
same,glycan array binding signal (z-score),Man(b1-4)GlcNAc,-0.379
same,glycan array binding signal (z-score),MurNAc(b1-4)GlcNAc,0.118
